Reference: PubChem BioAssay AID588855 (National Center for Advancing Translational Sciences (NCATS), 2011)
Out of some 410,000 compounds screened, about 5,000 (1.2%) were called active. This list was built around the results that the source calls inconclusive (neither active nor inactive); the mix of calls is not that of the screen. Calls come from the whole dose curve; as a rule, active = well fitted inhibition curve with a large enough effect; inconclusive = small, poorly fitted or top-dose-only effect; inactive = no such curve, though single readings can be large or run the other way. Where the call is inconclusive, the potency comes from a doubtful curve fit.
Potency is the fitted concentration of half-maximal effect; tags give direction and shape of the fitted curve.

Experiment: qHTS for Inhibitors of TGF-b; note: nearly all actives have a fitted effect of over 65% in size
Conditions: HepG2 CAGA-GFP TGF-b/SMAD3 reporter, GFP fluorescence, 18 h, TGF-beta stimulated, 500 pg/mL final; series mostly up to 46.1 µM
Outline: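 Cell-based qHTS in HEPG2 carrying a CAGA-GFP Smad reporter; compounds added before 500 pg/mL final TGF-beta, 18 h incubation at 37 degrees C, GFP fluorescence quantified per cell by imaging cytometry.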
With Cc1ccc(N(Cc2ccccc2)C(=O)c2cc(S(=O)(=O)N3CCOCC3)ccc2N2CCCC2)cc1 the Potency was inconclusive: 11.2 µM [inhibitor, partial curve, poor fit].
In the case of COc1ccc(OC)c(S(=O)(=O)N2CCN(C34CC5CC(CC(C5)C3)C4)CC2)c1, the Potency is reported as inconclusive: 35.5 µM [inhibitor, single point].
With Cc1ccc(NC(=O)c2ccccc2NC(=O)c2cccs2)cc1 the Potency was inconclusive: 15.8 µM [inhibitor, single point].
With Cc1cccc2sc(NNC(=O)c3cc(=O)c4ccccc4o3)nc12 the Potency was inconclusive: 35.5 µM [inhibitor, single point].
With COc1cc2ccccc2cc1C(=O)N1CCCC1 the Potency was “inactive”.
For O=C(Cn1[nH]c(=O)c2ccccc2c1=O)NC1CCN(Cc2ccccc2)CC1, the Potency was “inactive”.
With CC(NCC(O)COc1ccc2ccccc2c1)c1ccccc1 (stereo not given) the Potency was inconclusive: 14.1 µM [inhibitor, partial curve, poor fit].
With CCOC(=O)N1CCN(c2ccc(C(=O)c3ccccc3)cc2F)CC1 the Potency was inconclusive: 25.1 µM [inhibitor, single point].
For CCOC(=O)c1ccc(N2C(=O)c3n[nH]c(C)c3C2c2ccccc2OC)cc1 (stereo not given), the Potency was inconclusive: 17.8 µM [inhibitor, single point].
In the case of COC(=O)C1(C(F)(F)F)N=C(N(C)C)OC(N(C)C)=N1, the Potency is reported as inconclusive: 28.2 µM [inhibitor, single point].
For C[C@]1(CO)CCC[C@@]2(C)C1CC[C@@H](CO)[C@@H]2CCc1ccoc1 (stereo not given in full), the Potency was inconclusive: 35.5 µM [inhibitor, single point].
In the case of CCc1ccc(OCC(=O)NC(NC(=S)Nc2ccccc2)C(Cl)(Cl)Cl)cc1 (stereo not given), the Potency is reported as inconclusive: 5.62 µM [inhibitor, partial curve].
For O=C(Cn1ccccc1=O)c1ccc(Cl)cc1, the Potency was “inactive”.
In the case of Cc1n[nH]c(C)c1CCc1nc2c3ccccc3nc(SCC(=O)Nc3ccc(F)cc3)n2n1, the Potency is reported as inconclusive: 22.4 µM [inhibitor, single point].
In the case of COC(=O)c1scc(-c2ccc(C)cc2)c1S(=O)(=O)Nc1cccc(Cl)c1C, the Potency is reported as inconclusive: 17.8 µM [inhibitor, partial curve, poor fit].
In the case of COc1cc2c(cc1NC(=S)NC(=O)c1c(OC)cccc1OC)oc1ccccc12, the Potency is reported as inconclusive: 11.2 µM [inhibitor, partial curve].
In the case of CC(=O)OCC(=O)C1(O)CCC2C3CCC4=CC(=O)CCC4(C)C3(F)C(O)CC21C (stereo not given), the Potency is reported as “inactive”.
With O=[N+]([O-])c1cc2ncccc2c2ncccc12 the Potency was “inactive”.
For CCCc1cc(=O)n2[nH]c(C)c(-c3ccccc3)c2n1, the Potency was “inactive”.
With C/C(N)=C(/C#N)C(=O)CSc1nc(-c2ccccc2)c(-c2ccccc2)o1 the Potency was inconclusive: 1.58 µM [inhibitor, full curve, poor fit].
In the case of CCc1cccc(CC)c1NC(=S)NCCc1ccc(O)c(O)c1, the Potency is reported as inconclusive: 10 µM [inhibitor, partial curve].
With OC(c1ccc(F)cc1)c1nc(/C=C/c2ccccc2)cs1 (stereo not given) the Potency was inconclusive: 35.5 µM [inhibitor, single point].
With O=c1c2ccccc2[nH]c(=S)n1CCCN1CCN(C2CCCCC2)CC1 the Potency was “inactive”.
With CCN1CCN(c2cc(C)c3cc(NC(=O)c4cccc(Cl)c4)ccc3n2)CC1 the Potency was inconclusive: 35.5 µM [inhibitor, single point].
In the case of CCCC(=O)C1=C(c2ccc(C)cc2)N(C(=O)CCC)n2cnnc2S1, the Potency is reported as inconclusive: 22.4 µM [inhibitor, single point].
With Cc1cc(C)n(-c2ncc(C#N)cn2)n1 the Potency was inconclusive: 35.5 µM [inhibitor, single point].
In the case of Cc1ccc(C(=S)NCS(=O)(=O)c2ccc(C)cc2)cc1, the Potency is reported as “inactive”.
With COC/C=C/C1=CC2=CC(=O)C(C)(OC(=O)c3cnc4ccccc4n3)C(=O)C2=CN1Cc1ccc(OC)cc1 (stereo not given) the Potency was inconclusive: 35.5 µM [inhibitor, single point].
With CC(C)C(=O)Nc1ccc(NC(=S)NC(=O)c2ccccc2F)cc1 the Potency was “inactive”.
For Cc1ccccc1NC(=O)CN1C(=O)NC(C)(c2ccc3c(c2)OCO3)C1=O (stereo not given), the Potency was “inactive”.
In the case of O=C(O)Cc1c(-c2ccccc2Cl)c2cc(Br)ccc2[nH]c1=O, the Potency is reported as “inactive”.
In the case of COc1ccc(-c2csc(NC(=O)CN3C(=O)NC4(CCCC4)C3=O)n2)c(OC)c1, the Potency is reported as “inactive”.
In the case of CCOC(=O)c1c(-n2cnnn2)sc2c1CCCC2, the Potency is reported as inconclusive: 35.5 µM [inhibitor, single point].
With CCOc1cccc(CNCCO)c1OCc1ccc(Cl)cc1 the Potency was “inactive”.
With Cc1oc(-c2ccc(C(=O)Nc3cccc(C(F)(F)F)c3)cc2)nc1CSc1ccccc1 the Potency was inconclusive: 10 µM [inhibitor, partial curve, poor fit].
With O=C(/C=C/c1ccccc1)CC(O)(c1ccccc1)C(F)(F)C(F)F (stereo not given) the Potency was active: 12.6 µM.
In the case of Cc1cc(C)c(NC(=O)CNC(=O)COC(=O)C2=COCCO2)c(C)c1, the Potency is reported as “inactive”.
In the case of COC(=O)Nc1ccc(S(=O)(=O)NC2CCCCC2)cc1, the Potency is reported as “inactive”.
In the case of NC(c1ccccc1)c1csc(Nc2cc(Oc3ccccc3)ncn2)n1 (stereo not given), the Potency is reported as inconclusive: 22.4 µM [inhibitor, partial curve, poor fit].
For O=C(CNC(=O)c1ccc([N+](=O)[O-])cc1)c1ccccc1, the Potency was “inactive”.
In the case of C=CCNC(=S)N1CCc2c([nH]c3ccccc23)C1C (stereo not given), the Potency is reported as inconclusive: 5.62 µM [inhibitor, single point].
For Cc1cccc(Cc2cnc(NC(=O)C3=NCCN3)s2)c1, the Potency was inconclusive: 5.62 µM [inhibitor, partial curve, poor fit].
In the case of O=C(CCCCn1c(=O)c2ccccc2n(CC(=O)Nc2ccccc2)c1=O)NCc1ccccc1Cl, the Potency is reported as “inactive”.
With Cc1cccc(N2CCN(S(=O)(=O)c3ccc4oc(=O)c5ncn(C)c5c4c3)CC2)c1C the Potency was “inactive”.
With CCN(CC)CCCNC(=O)C1CCN(S(C)(=O)=O)CC1 the Potency was “inactive”.
With O=C(COc1ccccc1[N+](=O)[O-])c1ccccc1 the Potency was inconclusive: 15.8 µM [inhibitor, single point].
With O=C(NCCc1ccccc1)C1CCCN1C(=O)Nc1ccc(F)cc1 (stereo not given) the Potency was inconclusive: 35.5 µM [inhibitor, partial curve, poor fit].
With Nc1cccc(-c2nnc3n2CCCCC3)c1 the Potency was inconclusive: 6.31 µM [inhibitor, single point].
With C=CCn1c2ccccc2c2nnc(SCC(=O)Nc3c(C)n(C)n(-c4ccccc4)c3=O)nc21 the Potency was inconclusive: 10 µM [inhibitor, partial curve, poor fit].
With Cc1cc(C)c(S(=O)(=O)NCCc2cc3ccc(C)cc3[nH]c2=O)c(C)c1 the Potency was inconclusive: 3.16 µM [inhibitor, full curve, poor fit].
For COc1ccc(-c2nnc(SCC(=O)c3ccc(C)o3)o2)cc1, the Potency was “inactive”.
For CC1=C(C(=O)N2CCCCC2)C(c2cccc(Cl)c2)n2c(nc3ccccc32)N1 (stereo not given), the Potency was “inactive”.
For COc1ccc(NC(=O)CN(C)C(=O)c2cccc(S(=O)(=O)N3CCN(C)CC3)c2)cc1, the Potency was “inactive”.
For OC(CN1CCN(c2cccc(Cl)c2)CC1)C(c1ccccc1)c1ccccc1 (stereo not given), the Potency was inconclusive: 20 µM [inhibitor, partial curve, poor fit].
For OC(c1ccccc1)(C1CCCCC1)C(CN1CCOCC1)c1ccccc1 (stereo not given), the Potency was inconclusive: 35.5 µM [inhibitor, single point].
With C#CCOCCOCCOCCNc1nc(N2CCN(C(=O)[C@H]([C@@H](C)CC)n3cc(CCCN=C(N)N)nn3)CC2)nc(N2CCN(C(=O)[C@H]([C@@H](C)CC)n3cc(CCC(=O)O)nn3)CC2)n1 the Potency was “inactive”.
With Cc1ccc(OC(=O)c2ccc([N+](=O)[O-])cc2Cl)cn1 the Potency was “inactive”.
For NC(=O)CC(NC(=O)Cc1cccc2ccccc12)c1ccc(NC2CC3CCC2C3)c([N+](=O)[O-])c1 (stereo not given), the Potency was inconclusive: 4.47 µM [inhibitor, single point].
For COc1ccc(-c2c(C#N)c(SCC(=O)Nc3ccc(Br)cc3)nc(C)c2C(=O)Nc2ccccc2)cc1, the Potency was “inactive”.
For [O-][n+]1nc2ccccc2c2ccccc21, the Potency was “inactive”.
With CCN(CC)C(=O)c1oc2ccc(S(=O)(=O)N3CC(C)CC(C)C3)cc2c1C (stereo not given) the Potency was inconclusive: 1.26 µM [inhibitor, full curve, poor fit].
With COc1ccc(/C=C/c2cc[n+](C)c3ccccc23)cc1OC the Potency was “inactive”.
With COc1ccc(N(C)S(=O)(=O)c2cccc(C(=O)NC3CCCC(C)C3C)c2)cc1 (stereo not given) the Potency was inconclusive: 25.1 µM [inhibitor, single point].
With CC1=NN(C(N)=S)C(=O)C1N=Nc1ccc(O)cc1 (stereo not given) the Potency was “inactive”.
In the case of Cc1ccc(NS(=O)(=O)c2cc3c(cc2Br)NC(=O)CO3)cc1C, the Potency is reported as inconclusive: 11.2 µM [inhibitor, single point].
In the case of O=C(CNC(=S)N(Cc1ccccc1)Cc1ccccc1F)NCCc1ccccc1, the Potency is reported as “inactive”.
With N#Cc1nc(Cc2cccc3ccccc23)oc1NCc1ccc(F)cc1 the Potency was inconclusive: 35.5 µM [inhibitor, single point].
In the case of O=c1cc(CSc2nnc(Nc3ccccc3)s2)nc2sccn12, the Potency is reported as inconclusive: 6.31 µM [inhibitor, single point].
In the case of COc1cc(NC(=O)c2ccc3c(c2)S(=O)(=O)N=C2CCCCCN23)cc(OC)c1, the Potency is reported as inconclusive: 6.31 µM [inhibitor, single point].
In the case of CCc1nc2ccc(C(=O)NCc3ccc4c(c3)OCO4)cn2c1N(C)Cc1ccc(OC)cc1, the Potency is reported as inconclusive: 35.5 µM [inhibitor, single point].
